According to the supplement of paper PMC10126150:
Sequences with one replicate were seen in a single cluster, so their values are uncertain.

System: ATP
Assay: switch fluorescence ratio, 500 uM ATP over buffer (Cy3 cluster intensity, sum of 5 cycles each) (fold (ratio)); higher = stronger signal-on switching upon ATP binding; sequences stand for … in TCGTCGGCAGCGTCAGATGTGTATAAGAGACAGTTTTTTTTTTTTTTTTTTTTTTTTT…TC
Details: aptamer strand: ATP DNA aptamer (quencher-CACCTGGGGGAGTATTGCGGAGGAAGG + anchor), 100 nM annealed; ATP concentration: 500 uM; one replicate
Procedure, shortened: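 The quencher-labelled ATP aptamer, at 100 nM, was annealed to Cy3-labelled switching-strand clusters on a modified Illumina MiSeq flow-cell. The clusters were imaged in selection buffer, then after 15 min with 500 uM ATP at 22 °C, and this buffer/ATP cycle ran five times with NaOH stripping and re-annealing between runs. Per-cluster fluorescence ratios, summed target-cycle over summed buffer-cycle Cy3 intensity, were averaged per switch-domain sequence. Clusters outside 100-1000 RFU were excluded.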
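Further: ATP exposure 15 min at 22 °C before imaging.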

| Sequence | switch fluorescence ratio |
| --- | --- |
| AATAACTCA | 0.974 |
| AATAAGGACA | 1.03 |
| AATAATCCGA | 1.07 |
| AATAATGTT | 1.03 |
| AATACAATAT | 1.05 |
| AATACACTTG | 1 |
| AATACGGCAG | 0.98 |
| AATACGGGTT | 1.02 |
| AATACTCCAA | 1.4 |
| AATACTTATC | 1.04 |
| AATAGAAAT | 1.04 |
| AATAGAATCG | 0.966 |
| AATAGAGTGC | 0.979 |
| AATAGATGTA | 0.99 |
| AATAGCATTC | 1.24 |
| AATAGGCTCG | 1 |
| AATAGGGCGC | 1.03 |
| AATAGGGTAA | 1.01 |
| AATAGTACCT | 1.17 |
| AATAGTTGAC | 0.958 |
| AATATAGGTC | 1.03 |
| AATATCTTGA | 1.07 |
| AATATTCACA | 1.04 |
| AATATTGAGT | 0.998 |
| AATATTGCTG | 1.04 |
| AATCAACGTT | 1.07 |

| Sequence | switch fluorescence ratio |
| --- | --- |
| AATCACATTT | 1.02 |
| AATCACTGCT | 1.19 |
| AATCAGATAT | 1.03 |
| AATCAGTCAC | 1.03 |
| AATCCACGTG | 1.04 |
| AATCCCGTGG | 0.997 |
| AATCCGGTAA | 1.12 |
| AATCCGTTCG | 1.03 |
| AATCCTGTG | 1.04 |
| AATCGATTAT | 0.997 |
| AATCGGAAAA | 0.996 |
| AATCGGAAGG | 1.04 |
| AATCGGAGGT | 1.04 |
| AATCGGGTGA | 1.08 |
| AATCGGTGC | 1.05 |
| AATCGGTTTT | 1.03 |
| AATCTACTTA | 1.01 |
| AATCTCGCTT | 1.02 |
| AATCTTAGTT | 1.01 |
| AATCTTCACT | 1.03 |
| AATCTTGCTA | 1.02 |
| AATGAAGACC | 1.01 |
| AATGACATCC | 1.06 |
| AATGACGCG | 0.977 |
| AATGACGGGT | 0.996 |
| AATGAGAGAT | 1.03 |

| Sequence | switch fluorescence ratio |
| --- | --- |
| AATGAGGGT | 0.946 |
| AATGATCCTG | 0.993 |
| AATGATTGTG | 1 |
| AATGATTTGT | 0.988 |
| AATGCAAAAG | 0.989 |
| AATGCCTGTT | 1.02 |
| AATGCTGTT | 1.03 |
| AATGCTTTC | 1.09 |
| AATGGAATAC | 3.49 |
| AATGGAGGTC | 1.03 |
| AATGGATAGG | 1.02 |
| AATGGATCTA | 1 |
| AATGGATTTA | 0.989 |
| AATGGCATAA | 1 |
| AATGGGACT | 0.985 |
| AATGGGAGCT | 1 |
| AATGGGGAT | 0.948 |
| AATGGGGCAT | 0.992 |
| AATGGGGCCG | 0.988 |
| AATGGTAAAA | 1.01 |
| AATGGTCCGT | 0.963 |
| AATGGTGG | 0.993 |
| AATGGTTAGC | 1.03 |
| AATGTATCTC | 0.96 |
| AATGTATTC | 0.976 |
| AATGTCGAC | 0.981 |

| Sequence | switch fluorescence ratio |
| --- | --- |
| AATGTCTAGC | 0.974 |
| AATGTGAACA | 1.07 |
| AATGTGCGCC | 1.01 |
| AATGTGTTT | 0.955 |
| AATGTTATTT | 1.01 |
| AATGTTCGTC | 0.984 |
| AATGTTCTCG | 0.982 |
| AATGTTGGCC | 1.04 |
| AATGTTGTCT | 0.975 |
| AATGTTTAAG | 0.98 |
| AATGTTTAGA | 1.01 |
| AATGTTTATG | 0.991 |
| AATTAAAAAA | 1.21 |
| AATTAAAGAT | 0.959 |
| AATTAAATG | 1.04 |
| AATTAAGAAT | 1 |
| AATTAAGTTT | 0.989 |
| AATTAATATA | 0.953 |
| AATTAGGAAG | 0.978 |
| AATTATACTA | 0.991 |
| AATTATCCCG | 1.01 |
| AATTATGATA | 0.961 |
| AATTATGCGG | 0.92 |
| AATTATGCGT | 0.991 |
| AATTCAAAAT | 0.968 |
| AATTCCACAT | 1.02 |

| Sequence | switch fluorescence ratio |
| --- | --- |
| AATTCCACC | 1.28 |
| AATTCCACCT | 1.14 |
| AATTCCGGAT | 0.983 |
| AATTCGATTT | 0.983 |
| AATTCGTTGT | 1.06 |
| AATTCTAATT | 0.986 |
| AATTGAATTG | 0.969 |
| AATTGACGCT | 1.03 |
| AATTGATCAT | 0.99 |
| AATTGCACCC | 1.06 |
| AATTGCACGT | 1.07 |
| AATTGGAAAG | 1.03 |
| AATTGGAATT | 0.939 |
| AATTGGCAAG | 0.992 |
| AATTGTGTGG | 0.991 |
| AATTTAATCG | 0.984 |
| AATTTACCAA | 1.05 |
| AATTTACCT | 1.18 |
| AATTTATGCT | 0.962 |
| AATTTCTCTA | 1 |
| AATTTCTGTT | 1.02 |
| AATTTGGCTC | 0.945 |
| AATTTGGTGA | 1.03 |
| AATTTGGTTC | 0.965 |
| AATTTGTCAA | 0.995 |
| AATTTTCCTG | 1.02 |

| Sequence | switch fluorescence ratio |
| --- | --- |
| AATTTTGTTG | 0.976 |
| ACAAAAAGTT | 0.967 |
| ACAAAAGTAG | 1.03 |
| ACAAAAGTCT | 0.982 |
| ACAAACAAAG | 1.02 |
| ACAAAGAGAT | 1.04 |
| ACAAAGCGCG | 0.994 |
| ACAAAGGGCC | 1.01 |
| ACAAATAGT | 0.966 |
| ACAAATTTGG | 0.994 |
| ACAACTCGCC | 1.1 |
| ACAACTTGTG | 0.958 |
| ACAAGAACA | 1.05 |
| ACAAGAAGTA | 0.99 |
| ACAAGAGT | 1.01 |
| ACAAGCGCGG | 0.968 |
| ACAAGGATTG | 0.988 |
| ACAAGGGGGC | 1.06 |
| ACAAGTGGGA | 0.998 |
| ACAATACTAA | 1.18 |
| ACAATAGGGG | 0.979 |
| ACAATATACT | 1.11 |
| ACAATCAACA | 1.03 |
| ACAATCGAAT | 1.04 |
| ACACAAGAAT | 1.02 |
| ACACAATCGT | 0.995 |

| Sequence | switch fluorescence ratio |
| --- | --- |
| ACACAGGACT | 1.13 |
| ACACATATCT | 1.02 |
| ACACCAAGTA | 1.02 |
| ACACCAATGG | 1.02 |
| ACACCAGGCG | 2.55 |
| ACACCCGGTA | 1.15 |
| ACACCGCGCG | 1.14 |
| ACACCTCACC | 1.47 |
| ACACGACGGT | 1.26 |
| ACACGAGCCC | 0.985 |
| ACACGCCGA | 1.1 |
| ACACGCTATT | 1.31 |
| ACACGGATAA | 0.983 |
| ACACGGGCGA | 1.03 |
| ACACGGTCGG | 0.99 |
| ACACGGTGGA | 0.976 |
| ACACTAAGCT | 1.05 |
| ACACTAGCGC | 1.11 |
| ACACTAGTAT | 1.02 |
| ACACTCAGT | 1.05 |
| ACACTCATGT | 1.03 |
| ACACTCCACA | 1.45 |
| ACACTCCAGA | 1.06 |
| ACACTCGCAT | 1.52 |
| ACACTGTAAA | 1 |
| ACACTTCTTA | 0.982 |

| Sequence | switch fluorescence ratio |
| --- | --- |
| ACACTTTCGC | 1.03 |
| ACACTTTGCA | 1.03 |
| ACAGAACAGG | 1.1 |
| ACAGAATTCA | 1.02 |
| ACAGACGTTT | 1.14 |
| ACAGACTACA | 1.34 |
| ACAGAGACGG | 1.07 |
| ACAGAGCTGG | 1.03 |
| ACAGAGTCGT | 0.973 |
| ACAGAGTGTG | 0.99 |
| ACAGATAAGG | 1.02 |
| ACAGATACGT | 1.12 |
| ACAGATCAAT | 1.09 |
| ACAGATCTTG | 0.993 |
| ACAGATGGGT | 1.03 |
| ACAGCATGAC | 4.21 |
| ACAGCCGACT | 1.05 |
| ACAGCCGGGG | 1.11 |
| ACAGCTATCA | 1.09 |
